The source of these data is the supplement of paper PMC4604168 (melanoma cell lines).

Structures are written as SMILES. This is one part of the list. Single values are uncertain, as repeats are few or missing.

What all share (test): cell count relative to DMSO control; melanoma cells; higher = more viable cells
Settings in all cases: library dose: standard library concentration; 72 h

The subject of assay [1] is A101D.
The subject of assay [2] is A2058.
Assay [3] concerns A375.
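Note: cells treated in 1,536-well plates, then fixed and DAPI-stained, with nuclei counted from automated high-throughput microscope images.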

Regarding `N#CC[C@H](C1CCCC1)n1cc(-c2ncnc3[nH]ccc23)cn1` [ruxolitinib] + Cn1cnc2c(F)c(Nc3ccc(Br)cc3Cl)c(C(=O)NOCCO)cc21 [selumetinib] (first compound 5 µM, partner dose 0.075 µM), the cell count in assay [1] came to 82.8%; in assay [2], 91.3%; in assay [3], 173%.

As to `Cc1cc(Nc2cc(N3CCN(C)CC3)nc(Sc3ccc(NC(=O)C4CC4)cc3)n2)n[nH]1` [Tozasertib] + Cn1nnc2c(C(N)=O)ncn2c1=O [temozolomide] (first compound 0.03 µM, partner dose 10 µM), the cell count was determined as 82.4% in assay [1], 48% in assay [2] and 97.2% in assay [3].

Consider `N#CC[C@H](C1CCCC1)n1cc(-c2ncnc3[nH]ccc23)cn1` [ruxolitinib] + C[C@@H](Oc1cc(-c2cnn(C3CCNCC3)c2)cnc1N)c1c(Cl)ccc(F)c1Cl [Crizotinib] (first compound 5 µM, partner dose 1 µM), for which the results for the cell count in assay [1], in assay [2] and in assay [3] were 119%, 60.4% and 131%, respectively.

As for `Cc1cc(Nc2cc(N3CCN(C)CC3)nc(Sc3ccc(NC(=O)C4CC4)cc3)n2)n[nH]1` [Tozasertib] + COc1cc([C@@H]2c3cc4c(cc3[C@@H](O[C@@H]3O[C@@H]5CO[C@@H](C)O[C@H]5[C@H](O)[C@H]3O)[C@H]3COC(=O)[C@H]23)OCO4)cc(OC)c1O [etoposide] (first compound 0.03 µM, partner dose 0.1 µM), the cell count in assay [1] stood at 67.2%; in assay [2] it was 64.2%; in assay [3], 63.9%.

Regarding `N#CC[C@H](C1CCCC1)n1cc(-c2ncnc3[nH]ccc23)cn1` [ruxolitinib] + CC(=O)O[C@@]12CO[C@@H]1C[C@H](O)[C@@]1(C)C(=O)[C@H](O)C3=C(C)[C@@H](OC(=O)[C@H](O)[C@@H](NC(=O)OC(C)(C)C)c4ccccc4)C[C@@](O)([C@@H](OC(=O)c4ccccc4)[C@H]21)C3(C)C [Docetaxel] (first compound 5 µM, partner dose 0.0005 µM), the cell count in assay [1] was found to be 51.4%; in assay [2], 7.87%; in assay [3], 73.6%.
